Experimental findings from the GPR68 mutational scans of Howard et al. (2025) are described below.

B1: GPR68, Q15743 (parent)
chain: MGNITADNSSMSCTIDHTIHQTLAPVVYVTVLVVGFPANCLSLYFGYLQIKARNELGVYLCNLTVADLFYICSLPFWLQYVLQHDNWSHGDLSCQVCGILLYENIYISVGFLCCISVDRYLAVAHPFRFHQFRTLKAAVGVSVVIWAKELLTSIYFLMHEEVIEDENQHRVCFEHYPIQAWQRAINYYRFLVGFLFPICLLLASYQGILRAVRRSHGTQKSRKDQIQRLVLSTVVIFLACFLPYHVLLLVRSVWEASCDFAKGVFNAYHFSLLLTSFNCVADPVLYCFVSETTHRDLARLRGACLAFLTCSRTGRAREAYPLGAPEASGKSGAQGEEPELLTKLHPAFQTPNSPGSGGFPTGRLA

Data set [1] covers variants of B1. The data set can be described thus: cAMP reporter score (Enrich2 score, wild type = 0); higher = more signal; HEK293T, FACS bins.
In data set [2] the parent is B1. In words: surface expression score (Enrich2 score, wild type = 0); higher = more signal; HEK293T, FACS bins.

The least precise scores are not listed. Not listed are two conditions whose scores span a narrow range. Names with del lack the residues named; names with ins carry added residues between the positions named. For some of these results: The data file names ogerin without a concentration.

In the case of M11R, the cAMP reporter score in data set [1] (pH 5.5) is 0.177; in data set [1] (pH 6), 0.144; in data set [1] (pH 6, modulator: ogerin), 0.749; in data set [1] (pH 6.5, modulator: ogerin) it was 0.224. The surface expression score in data set [2] is -0.222.
Take M11L: the cAMP reporter score in data set [1] (pH 5.5) worked out at 0.514; in data set [1] (pH 6), 0.084; in data set [1] (pH 6, modulator: ogerin), 0.291; in data set [1] (pH 6.5, modulator: ogerin), 0.028. For the same variant, in data set [2], the surface expression score amounted to 0.503.
Take M11Q: the cAMP reporter score in data set [1] (pH 5.5) was 0.844; in data set [1] (pH 6), -0.494; in data set [1] (pH 6, modulator: ogerin), 0.645; in data set [1] (pH 6.5, modulator: ogerin), 0.984. In data set [2], the surface expression score came out at 0.331.
The like results for M11I were, in that order, 0.477, 0.299, 0.419, 0.31 and 1.17.
As for M11C, the cAMP reporter score in data set [1] (pH 5.5) is -0.285; in data set [1] (pH 6), -0.189; in data set [1] (pH 6, modulator: ogerin), -0.105; in data set [1] (pH 6.5, modulator: ogerin) it was -0.198. The surface expression score in data set [2] was -0.12.
As for M11S, the cAMP reporter score in data set [1] (pH 5.5) is -0.533; in data set [1] (pH 6) it was 0.764; in data set [1] (pH 6, modulator: ogerin) it was -0.711; in data set [1] (pH 6.5, modulator: ogerin), -0.101. Also, the surface expression score in data set [2] came to 0.666.
The like results for M11F were, in that order, 0.809, 0.915, 0.881, 1.38 and 0.511.
The corresponding values for M11T are -0.046, -0.268, 0.244, -0.483 and 0.192.
The like results for M11A were, in that order, 0.173, 0.142, 0.345, 1.36 and -0.272.
Take M11G: the cAMP reporter score is -0.153 in data set [1] (pH 5.5); -0.227 in data set [1] (pH 6); -0.044 in data set [1] (pH 6, modulator: ogerin); 0.647 in data set [1] (pH 6.5, modulator: ogerin). Further, in data set [2], the surface expression score was -0.424.
Consider M11W, for which the cAMP reporter score in data set [1] (pH 5.5) is 0.715; in data set [1] (pH 6, modulator: ogerin) it was 0.804; in data set [1] (pH 6.5, modulator: ogerin), 0.437. Moreover, in data set [2], the surface expression score was found to be 0.38.
For the variant I19P, the cAMP reporter score was -1.01 in data set [1] (pH 5.5); -1.16 in data set [1] (pH 6); -1.29 in data set [1] (pH 6, modulator: ogerin); -1.26 in data set [1] (pH 6.5, modulator: ogerin). Moreover, the surface expression score in data set [2] was -0.873.
With I19A, the cAMP reporter score was -1.44 in data set [1] (pH 5.5); -0.451 in data set [1] (pH 6, modulator: ogerin); -0.79 in data set [1] (pH 6.5, modulator: ogerin). The surface expression score in data set [2] is -1.32.
Turning to I19K, the cAMP reporter score in data set [1] (pH 5.5) is -0.88; in data set [1] (pH 6), -1.02; in data set [1] (pH 6, modulator: ogerin) it was -1.09; in data set [1] (pH 6.5, modulator: ogerin), -1.19. In data set [2], the surface expression score was -1.27.
For the variant I19F, the cAMP reporter score in data set [1] (pH 5.5) is -1.11; in data set [1] (pH 6), -0.368; in data set [1] (pH 6, modulator: ogerin) it was -1.11; in data set [1] (pH 6.5, modulator: ogerin), -0.706. Besides, the surface expression score in data set [2] is 0.683.
With I19G, the cAMP reporter score in data set [1] (pH 5.5) is -0.902; in data set [1] (pH 6), -1.15; in data set [1] (pH 6, modulator: ogerin), -1.54; in data set [1] (pH 6.5, modulator: ogerin) it was -1.29. For the same variant, in data set [2], the surface expression score is -0.503.
Regarding I19S, the cAMP reporter score in data set [1] (pH 5.5) was -1.29; in data set [1] (pH 6) it was -0.487; in data set [1] (pH 6, modulator: ogerin) it was -1.2; in data set [1] (pH 6.5, modulator: ogerin) it was -0.67. Besides, in data set [2], the surface expression score was -1.31.
With I19T, the cAMP reporter score in data set [1] (pH 5.5) is -0.66; in data set [1] (pH 6, modulator: ogerin), -0.448; in data set [1] (pH 6.5, modulator: ogerin), -0.275. The surface expression score in data set [2] is -1.1.
As to I19M, the cAMP reporter score in data set [1] (pH 5.5) is 0.092; in data set [1] (pH 6) it was 0.221; in data set [1] (pH 6, modulator: ogerin), 0.286; in data set [1] (pH 6.5, modulator: ogerin), -0.256. Besides, the surface expression score in data set [2] was -1.08.
The corresponding values for I19C are -1.15, -1.05, -0.404, -1.51 and -1.33.
The like results for I19E were, in that order, -1.28, -0.358, -2.43, -0.022 and -1.35.
The like results for I19H were, in that order, -0.774, -0.234, -0.524, -0.803 and -2.06.
Consider I19Y, for which the cAMP reporter score was -1.22 in data set [1] (pH 5.5); -0.472 in data set [1] (pH 6); -0.742 in data set [1] (pH 6, modulator: ogerin); -1.09 in data set [1] (pH 6.5, modulator: ogerin). In data set [2], the surface expression score was -0.588.
On to I19N, for which the cAMP reporter score is -1.38 in data set [1] (pH 5.5); -1.8 in data set [1] (pH 6); -1.56 in data set [1] (pH 6, modulator: ogerin); -0.806 in data set [1] (pH 6.5, modulator: ogerin). The surface expression score in data set [2] is -1.52.
The like results for I19V were, in that order, -0.736, -0.743, -0.695, -0.923 and -0.411.
Take I19Q: the cAMP reporter score in data set [1] (pH 5.5) is -1.25; in data set [1] (pH 6), -0.201; in data set [1] (pH 6, modulator: ogerin) it was -1.84; in data set [1] (pH 6.5, modulator: ogerin) it was -1.11. In addition, in data set [2], the surface expression score is -1.1.
For the variant I19L, the cAMP reporter score is -0.044 in data set [1] (pH 5.5); -0.388 in data set [1] (pH 6); -0.894 in data set [1] (pH 6, modulator: ogerin); -0.92 in data set [1] (pH 6.5, modulator: ogerin). Moreover, in data set [2], the surface expression score amounted to 0.61.
The like results for I19R were, in that order, -1.52, -1.04, -1.73, -0.629 and -1.31.
As to I19D, the cAMP reporter score is -2.09 in data set [1] (pH 5.5); -1.99 in data set [1] (pH 6, modulator: ogerin); -0.815 in data set [1] (pH 6.5, modulator: ogerin). The surface expression score in data set [2] was -1.79.
As to I19W, the cAMP reporter score in data set [1] (pH 5.5) is 0.112; in data set [1] (pH 6) it was -0.796; in data set [1] (pH 6, modulator: ogerin), -0.892; in data set [1] (pH 6.5, modulator: ogerin), -1.28. The surface expression score in data set [2] worked out at 1.95.
The like results for T22del were, in that order, -1.39, -1.07, -1.43, -0.759 and -0.789.
